According to PubChem BioAssay AID1259400 (National Center for Advancing Translational Sciences (NCATS), 2018):
The whole screen tested about 350,000 compounds, of which about 2,100 (0.6%) were called active. Inconclusive results, whose numbers are uncertain, are shown with a selection of clear calls.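 How the source made its calls: active means activity change of -60% or lower, but not beyond a set lower limit; inconclusive means change between -60% and -40%, or beyond the set limit; inactive means change above -40%.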

Target: Relaxin receptor 1 (Homo sapiens) (UniProt Q9HBX9)
Experiment: qHTS Assay for Antagonists of the Relaxin Receptor RXFP1
Conditions: HEK293-RXFP1, relaxin-stimulated cAMP HTRF, 30 min; at 57.5 µM; active compounds read low
On the % scale 0 is the no-effect control and ±100 the full control effect.

Chain of UniProt Q9HBX9 (Q9HBX9 whole entry, looked up): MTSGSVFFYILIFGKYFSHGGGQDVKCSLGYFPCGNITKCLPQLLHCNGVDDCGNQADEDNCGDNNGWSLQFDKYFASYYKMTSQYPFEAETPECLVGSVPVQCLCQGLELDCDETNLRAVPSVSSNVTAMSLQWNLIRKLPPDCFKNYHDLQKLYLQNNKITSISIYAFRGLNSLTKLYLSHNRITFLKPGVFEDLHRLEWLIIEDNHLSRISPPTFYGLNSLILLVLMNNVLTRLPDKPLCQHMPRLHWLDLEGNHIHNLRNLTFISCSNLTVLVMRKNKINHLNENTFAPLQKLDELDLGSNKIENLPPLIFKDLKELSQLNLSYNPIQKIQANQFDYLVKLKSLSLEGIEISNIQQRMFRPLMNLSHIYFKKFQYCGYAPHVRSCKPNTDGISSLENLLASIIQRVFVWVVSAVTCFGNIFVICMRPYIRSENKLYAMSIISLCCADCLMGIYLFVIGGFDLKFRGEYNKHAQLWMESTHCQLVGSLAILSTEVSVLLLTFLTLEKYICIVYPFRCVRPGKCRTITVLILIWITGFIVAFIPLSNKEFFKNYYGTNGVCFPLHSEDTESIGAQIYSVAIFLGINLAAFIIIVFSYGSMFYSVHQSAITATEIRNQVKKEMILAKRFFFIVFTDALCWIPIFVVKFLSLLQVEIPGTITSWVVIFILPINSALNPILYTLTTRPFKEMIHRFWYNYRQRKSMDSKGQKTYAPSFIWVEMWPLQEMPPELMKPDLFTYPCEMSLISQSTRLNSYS

| SMILES | activity change, negative = inhibition |
| --- | --- |
| CCCS(=O)(=O)c1c(S(=O)(=O)CCC)c2ccc(C(C)=O)cn2c1C(=O)OC | inconclusive: -40.9% |
| COc1cc(C2Nc3ccccc3-c3nnc(SCc4ccc(C)cc4)nc3O2)cc(OC)c1O (centres undefined) | inactive: -8.88% |
| COc1cc(/C=C(\C#N)c2nc3ccccc3[nH]2)cc(Br)c1OCc1ccccc1 | inconclusive: -45.2% |
| O=C1N/C(=C\c2ccc(O)cc2)C(=O)c2ccccc21 | inconclusive: -45.3% |
| Cc1ccnc(Nc2nc(-c3ccc(O)c(O)c3)cs2)c1 | inconclusive: -42.2% |
| O=C(CC1NCCc2ccccc21)Nc1ccc(Oc2ccccc2)cc1 (centres undefined) | inconclusive: -50.9% |
| CC(=O)Nc1cccc(NC(=O)CSc2ccc(-c3sc(-c4ccccc4)nc3C)nn2)c1 | inconclusive: -51.2% |
| CCCC1=Nc2cc(C(=O)NCCN3CCOCC3)ccc2Sc2ccccc21 | active: -99.7% |
| CC1=CSC2=NC(=O)/C(=C/c3cccc(OC(=O)c4ccco4)c3)C(=N)N12 | active: -80% |
| CS(=O)(=O)N(CC(=O)NCCC1=CCCCC1)C1CCCCC1 | inconclusive: -41% |
| COc1ccc(NC(=O)c2cc(-c3ccc(C)o3)nc3ccccc23)c(OC)c1 | inactive: 0.941% |
| Cc1cccc(NC(=O)CN2C(=O)CSc3ccc(S(=O)(=O)N4CCCC4)cc32)c1C | inactive: -8.15% |
| Cc1ccc(Nc2nc(-c3ccc(O)cc3O)cs2)nc1 | inconclusive: -56.4% |
| O=C(COC(=O)c1ccco1)c1ccc(Cl)cc1 | inconclusive: -44.4% |
| COc1ccc(/C=N/Nc2cc(C)nc(-n3nc(C)cc3C)n2)c(OC)c1 | inconclusive: -40.5% |
| CCOC(=O)c1c(NC(=O)COc2ccccc2OCC)sc2c1CC(C)(C)NC2(C)C | inconclusive: -41.5% |
| O=C(N/N=C1\CCCCc2ccccc21)c1ccccn1 | active: -64.8% |
| C=C(C)C1Cc2c(C)nn(-c3cccc4ccccc34)c2C1 (centres undefined) | inconclusive: -40.5% |
| CCOc1ccc(CC(=O)NCc2ccc3c(c2)CCN3C(=O)c2ccccc2)cc1OCC | inactive: -28.5% |
| CCN(CC)CCNc1ncnc2c1sc1nc(N3CCCC3)c3c(c12)CC(C)(C)OC3 | inconclusive: -55.9% |
| O=C(Nc1ccc(F)cc1)/C(Cl)=C/c1ccccc1 | inactive: -8.81% |
| O=C(O)C(F)=C(c1ccccc1)c1ccccc1 | inconclusive: -50.7% |

| SMILES | activity change, negative = inhibition |
| --- | --- |
| COc1ccc(CCNCc2c(C(=O)O)c(C)n(Cc3cccc(Cl)c3)c2C)c(OC)c1OC | inactive: -11% |
| CN(CC(O)COc1c(F)cc(Br)cc1F)C1CCCCC1 (centres undefined) | inconclusive: -42.4% |
| COc1cc(C2(c3ccc(O)c(OC)c3)C(=O)Nc3c(C)cc(Br)cc32)ccc1O | inconclusive: -41.6% |
| Oc1c(Cl)cc(Cl)cc1/C=N/NC(=S)NC1CC2C=CC1C2 (centres undefined) | inconclusive: -42.3% |
| CC(Sc1nnc(N)s1)C(=O)NC1CCCCC1C (centres undefined) | inconclusive: -47.2% |
| O=C1C(Cl)=C(NC(=O)c2ccccc2)C(=O)C(Cl)=C1NC(=O)c1ccccc1 | active: -105% |
| Cc1ccc(C(=O)Nc2ccc(SC(F)F)cc2)s1 | active: -73.4% |
| O=C(CSc1nc2ccccc2c(=O)n1-c1ccc(F)cc1)Nc1ccc2c(c1)CCC2 | inconclusive: -40.5% |
| OC(CNCc1ccccc1F)(c1ccc(F)cc1)c1ccc(F)cc1 | inconclusive: -51.3% |
| CC(C)(C)c1ccc2c(c1)OC(C(=O)N/N=C\c1ccc(-c3cccc(C(=O)O)c3)o1)CO2 (centres undefined) | active: -74.5% |
| O=C(N/N=C/c1[nH]c2ccccc2c1Cl)c1cccc(Br)c1 | inconclusive: -58.8% |
| CCCCCCCCCn1c2c(c(=N)c3c1CCC3)CCCC2 | active: -81.4% |
| O=C(CC1SC(=O)N(c2ccccc2)C1=O)Nc1ccc(Cl)cc1 (centres undefined) | active: -70.3% |
| O=C(NCc1ccccc1)c1nc(S(=O)(=O)Cc2ccc(F)cc2)ncc1Cl | active: -116% |
| CSc1ccc(CCNC(=O)c2cccc3c2C(=O)N(C2CCCCC2)C3)cc1 | inconclusive: -42.8% |
| CN(C)S(=O)(=O)c1ccc(-c2csc(N/N=C/c3ccco3)n2)cc1 | active: -71.6% |
| COc1c(F)c(F)c(C(=O)O)c(Nc2cc(C)cc(C)c2)c1F | inconclusive: -51.2% |
| CCCSc1oc(-c2ccco2)nc1S(=O)(=O)c1ccc(Br)cc1 | inconclusive: -49.2% |
| Cc1ccc(Nc2nc(C)nc3c2oc2ccccc23)cc1 | inconclusive: -53.2% |
| COc1cccc(COC(=O)c2ccc(-c3nnn(Cc4cccc(OC)c4)n3)cc2)c1 | inactive: -9.84% |
| CCCCN(CC)C(=O)CSc1nc2n[nH]c(C)c2c(=N)n1-c1cccc(C)c1 | inconclusive: -42.5% |
| O=S(c1cc(Cl)cc(Cl)c1O)c1cc(Cl)cc(Cl)c1O | inconclusive: -51.1% |
